The results in this text go back to ChEMBL document CHEMBL4888484, “Replenishing the malaria drug discovery pipeline: Screening and hit evaluation of the MMV Hit Generation Library 1 (HGL1) against asexual blood stage Plasmodium falciparum ,using a nano luciferase reporter read-out” (2022).

Among all 150,000 compounds or so, about 540 (0.36%) showed an effect of 50% or more. The list shows a part of the results.

In this test the test system is Plasmodium falciparum. Briefly: Primary screen in NF54 nanoGlo assay, in single point, at 2uM, 72h; a lower Z score goes with more inhibition. To be noted: timepoint 72 hour. In kind it is functional, Erythrocyte.
The % Inhibition is the drop in the measured response relative to a control, in per cent. With `Cc1cc(C)cc(-c2nc3cc(C)ccn3c2NC(=O)C2CCCC2)c1`, the “% Inhibition” value is on record as -10% and the Z score came out at 1.67.

For `O=S(=O)(N1CCOCC1)N1CC[C@H](Oc2ncc(Cl)cn2)C1`, the “% Inhibition” value was determined as 3% and the Z score is reported as -0.48.

For the compound `Cn1nccc1[C@H](CO)Nc1ncnc2ccsc12`, the “% Inhibition” value is 0% and the Z score came to 0.

`Cc1nc(N2CCC[C@H](C(=O)O)C2)c2c(C)noc2n1`: the “% Inhibition” value was -8% and the Z score stood at 1.18.

For the compound `Cc1nnc([C@H](C)Nc2ccc3c(c2)OCCO3)o1`, the “% Inhibition” value worked out at 1% and the Z score is on record as -0.08.

On to `C[C@@H](Cc1ccc2c(c1)CCO2)NC(=O)c1ccc2nsnc2c1`, for which the “% Inhibition” value came out at 4% and the Z score is listed as -0.63.

As for `NC(=O)Cn1cc(CN2CCc3ccc(Cl)cc32)nn1`, the “% Inhibition” value was -7% and the Z score turned out to be 1.08.

In the case of `CC[C@@H](CC#N)NC(=O)NC1CCCCC1`, the “% Inhibition” value is recorded as -15% and the Z score is given as 2.93.

With `COc1cccc(CC(=O)N2CC(Cn3cncn3)C2)c1`, the “% Inhibition” value turned out to be 4% and the Z score is -0.64.

For `Cc1nc2ccc(F)cc2c(OCc2csc([C@@H]3CCCO3)n2)c1C`, the “% Inhibition” value is on record as -6% and the Z score was determined as 0.76.

On to `O=C(c1cc(-c2ccco2)[nH]n1)N(C[C@H]1CCOC1)C1CC1`, for which the “% Inhibition” value is reported as 0% and the Z score is reported as -0.04.

With `O=C(c1cocn1)N1CCC2(CCN(Cc3ccccc3)CC2)CC1`, the “% Inhibition” value is reported as -6% and the Z score was determined as 0.83.

As to `COc1ccc(Cl)c(CN(CC#N)S(=O)(=O)N(C)C)c1`, the “% Inhibition” value is given as 5% and the Z score is recorded as -0.71.

As for `Cc1ccc(NC(=O)[C@H](C)N(Cc2c(C)nn(C)c2C)C(C)C)cc1`, the “% Inhibition” value turned out to be 8% and the Z score is -1.05.

For the compound `CCCN(CC(=O)N1CCn2cccc2[C@H]1c1ccccc1F)C(=O)c1ccc(Cl)cc1`, the “% Inhibition” value is -10% and the Z score amounted to 0.9.

On to `O=C(C1CCCC1)N1CC2CCCC(C1)C2O` (stereo unspecified), for which the “% Inhibition” value is -2% and the Z score came to 0.26.

With `O=C(CN1C(=O)C(=O)c2ccccc21)NCCc1ccccc1`, the “% Inhibition” value is recorded as -14% and the Z score is listed as 1.84.

In the case of `C[C@H](NC(=O)CCc1ccccn1)c1ccc(-c2cccnc2)cc1`, the “% Inhibition” value is given as -1% and the Z score was 0.12.

`CC1CCCCC1CC(=O)Nc1[nH]ncc1C(=O)N(C)C` (stereo unspecified): the “% Inhibition” value came to 18% and the Z score is reported as -2.28.

Take `O=C(CN1CCC(c2nnc(-c3ccco3)s2)CC1)Nc1cccnc1`: the “% Inhibition” value is recorded as -11% and the Z score is listed as 1.83.

Take `CCc1nc(COc2ccc(C(=O)NCc3nncn3C3CC3)cc2)no1`: the “% Inhibition” value was -6% and the Z score stood at 1.11.

For the compound `CCC[C@H]1CN(CCOCC)C[C@@H]1NC(=O)C1CCOCC1`, the “% Inhibition” value came to 4% and the Z score is -0.69.

Consider `CCOc1ncccc1-c1ccc(=O)n(C)n1`, for which the “% Inhibition” value was -5% and the Z score is 0.42.

On to `CC[C@H]1C[C@@H]1CN1CCN(S(=O)(=O)NC(C)C)CC1`, for which the “% Inhibition” value is listed as 6% and the Z score is reported as -1.19.

Turning to `Cc1cc(-c2cc(S(=O)(=O)NC(C)(C)C)c(C)s2)on1`, the “% Inhibition” value is 1% and the Z score is recorded as -0.14.

In the case of `NC(=O)c1cc(S(=O)(=O)C(F)(F)F)cc(S(=O)(=O)C(F)(F)F)c1`, the “% Inhibition” value is reported as -33% and the Z score is recorded as 3.88.

As for `CN1C(=O)CC[C@H]1C(=O)NCc1nc(COc2ccccc2)n[nH]1`, the “% Inhibition” value was found to be 3% and the Z score was -0.32.

Consider `COc1ccc(OC)c(N2CCCNC2=O)c1`, for which the “% Inhibition” value is -3% and the Z score was determined as 0.55.

In the case of `CC(C)Oc1cccc(CC(=O)N2CCCC[C@H]2c2ncon2)c1`, the “% Inhibition” value is -9% and the Z score was found to be 1.13.

Take `Cc1cc(C(=O)N2Cc3ccccc3C2)c(=O)[nH]c1C`: the “% Inhibition” value is listed as -6% and the Z score is 1.04.

For `Cc1ccc(-c2cc(C(=O)Nc3ccc4c(c3)OCCO4)c3ccccc3n2)s1`, the “% Inhibition” value stood at 32% and the Z score is reported as -3.66.

`OCC1CCCCCC1NCc1nnc(-c2ccc(Cl)cc2)o1` (stereo unspecified): the “% Inhibition” value was -16% and the Z score stood at 1.65.

`CC(NC(=O)N(C)CC1CCN(C)C1)c1csc2ccccc12` (stereo unspecified): the “% Inhibition” value is on record as -12% and the Z score was 0.97.

Consider `O=C1CCc2cc(NC(=O)NCc3ccc(C4CC4)cc3)ccc2N1`, for which the “% Inhibition” value turned out to be 0% and the Z score was determined as 0.

Turning to `CC1CCN(c2cncnc2-n2cc(NC(=O)C3CCCC3)cn2)CC1`, the “% Inhibition” value is recorded as -9% and the Z score is given as 1.02.

For `Cc1c(CC(=O)Nc2cc(F)cc(F)c2)c(=O)n2nc(-c3ccccc3)nc2n1Cc1ccccc1`, the “% Inhibition” value worked out at 7% and the Z score is on record as -0.9.

As to `Cc1nnc(CN[C@H](c2ccccc2)C2(CO)CCOCC2)s1`, the “% Inhibition” value amounted to 10% and the Z score is recorded as -1.24.

`CN(Cc1nccn1C)C(=O)NCCC1=CCCCC1`: the “% Inhibition” value is -4% and the Z score came out at 0.4.

In the case of `CC1CC(NC(=O)N2CC(C3CCC3)C2)C1` (stereo unspecified), the “% Inhibition” value is -12% and the Z score is on record as 1.72.

`Cc1c(C(=O)N2CCCCCC2CC(O)c2ccco2)cnn1C` (stereo unspecified): the “% Inhibition” value was 1% and the Z score was -0.16.

As for `c1cc(Cn2ccnc2-c2c[nH]cn2)c2cc[nH]c2c1`, the “% Inhibition” value was -13% and the Z score came to 1.52.

As for `CCOC(=O)[C@@](C)(C#N)Cc1ccncc1`, the “% Inhibition” value is listed as -16% and the Z score is recorded as 1.65.

With `COc1ccccc1C1CC1NC(=O)Nc1nnc(C(F)F)s1` (stereo unspecified), the “% Inhibition” value was -8% and the Z score was 1.56.
